Test results as given in paper PMC9911399, “Two distinct binding modes provide the RNA-binding protein RbFox with extraordinary sequence specificity”.
Residue numbers refer to the chain shown, from its start. The list shows a part of the results.

B1: GUCCAAU (DNA:RNA)
RNA: GGGAGACCGGAAUUCAGAUUGUCCGUCCAAUUUAAAUCCCGUCGUAGCCACCA
DNA 1: CAATCTGAATTCCGGTCTCCC
DNA 2: TGGTGGCTACGACGGGATT
B2: AACUUGU (DNA:RNA)
RNA: B1 RNA with G25A, U26A, C28U, A29U, A30G
DNA 1: CAATCTGAATTCCGGTCTCCC
DNA 2: TGGTGGCTACGACGGGATT
B3: UGAUAAC (DNA:RNA)
RNA: B1 RNA with G25U, U26G, C27A, C28U, U31C
DNA 1: CAATCTGAATTCCGGTCTCCC
DNA 2: TGGTGGCTACGACGGGATT
B4: GCCGUCG (DNA:RNA)
RNA: B1 RNA with U26C, C28G, A29U, A30C, U31G
DNA 1: CAATCTGAATTCCGGTCTCCC
DNA 2: TGGTGGCTACGACGGGATT
B5: CCAUUGC (DNA:RNA)
RNA: GGGAGACCGGAAUUCAGAUUGUCCCCAUUGCUUAAAUCCCGUCGUAGCCACCA
DNA 1: CAATCTGAATTCCGGTCTCCC
DNA 2: TGGTGGCTACGACGGGATT
B6: UGGGUCC (DNA:RNA)
RNA: B5 RNA with C25U, C26G, A27G, U28G, G30C
DNA 1: CAATCTGAATTCCGGTCTCCC
DNA 2: TGGTGGCTACGACGGGATT
B7: GUGUUUC (DNA:RNA)
RNA: B5 RNA with C25G, C26U, A27G, G30U
DNA 1: CAATCTGAATTCCGGTCTCCC
DNA 2: TGGTGGCTACGACGGGATT
B8: CAGAUCC (DNA:RNA)
RNA: B5 RNA with C26A, A27G, U28A, G30C
DNA 1: CAATCTGAATTCCGGTCTCCC
DNA 2: TGGTGGCTACGACGGGATT
B9: GACACAG (DNA:RNA)
RNA: B1 RNA with U26A, C28A, A29C, U31G
DNA 1: CAATCTGAATTCCGGTCTCCC
DNA 2: TGGTGGCTACGACGGGATT
B10: ACCGUCG (DNA:RNA)
RNA: B5 RNA with C25A, A27C, U28G, G30C, C31G
DNA 1: CAATCTGAATTCCGGTCTCCC
DNA 2: TGGTGGCTACGACGGGATT
B11: GCUCGGC (DNA:RNA)
RNA: B5 RNA with C25G, A27U, U28C, U29G
DNA 1: CAATCTGAATTCCGGTCTCCC
DNA 2: TGGTGGCTACGACGGGATT
B12: CCGAUUA (DNA:RNA)
RNA: B5 RNA with A27G, U28A, G30U, C31A
DNA 1: CAATCTGAATTCCGGTCTCCC
DNA 2: TGGTGGCTACGACGGGATT
B13: UAUUGGC (DNA:RNA)
RNA: B5 RNA with C25U, C26A, A27U, U29G
DNA 1: CAATCTGAATTCCGGTCTCCC
DNA 2: TGGTGGCTACGACGGGATT
B14: AUGCAUG (DNA:RNA)
RNA: B1 RNA with G25A, C27G, A30U, U31G
DNA 1: CAATCTGAATTCCGGTCTCCC
DNA 2: TGGTGGCTACGACGGGATT
B15: AUCCCAG (DNA:RNA)
RNA: B1 RNA with G25A, A29C, U31G
DNA 1: CAATCTGAATTCCGGTCTCCC
DNA 2: TGGTGGCTACGACGGGATT
B16: CCUAUUU (DNA:RNA)
RNA: B5 RNA with A27U, U28A, G30U, C31U
DNA 1: CAATCTGAATTCCGGTCTCCC
DNA 2: TGGTGGCTACGACGGGATT
B17: ACCCCAC (DNA:RNA)
RNA: B1 RNA with G25A, U26C, A29C, U31C
DNA 1: CAATCTGAATTCCGGTCTCCC
DNA 2: TGGTGGCTACGACGGGATT
B18: UGGCACC (DNA:RNA)
RNA: B1 RNA with G25U, U26G, C27G, A30C, U31C
DNA 1: CAATCTGAATTCCGGTCTCCC
DNA 2: TGGTGGCTACGACGGGATT
B19: UAUGAUA (DNA:RNA)
RNA: B1 RNA with G25U, U26A, C27U, C28G, A30U, U31A
DNA 1: CAATCTGAATTCCGGTCTCCC
DNA 2: TGGTGGCTACGACGGGATT
B20: AUGGUCC (DNA:RNA)
RNA: B5 RNA with C25A, C26U, A27G, U28G, G30C
DNA 1: CAATCTGAATTCCGGTCTCCC
DNA 2: TGGTGGCTACGACGGGATT
B21: GCGCCCU (DNA:RNA)
RNA: B1 RNA with U26C, C27G, A29C, A30C
DNA 1: CAATCTGAATTCCGGTCTCCC
DNA 2: TGGTGGCTACGACGGGATT
B22: UCAUGUU (DNA:RNA)
RNA: B5 RNA with C25U, U29G, G30U, C31U
DNA 1: CAATCTGAATTCCGGTCTCCC
DNA 2: TGGTGGCTACGACGGGATT
B23: GGCAGAG (DNA:RNA)
RNA: B1 RNA with U26G, C28A, A29G, U31G
DNA 1: CAATCTGAATTCCGGTCTCCC
DNA 2: TGGTGGCTACGACGGGATT
B24: CUCAAGU (DNA:RNA)
RNA: B1 RNA with G25C, C28A, A30G
DNA 1: CAATCTGAATTCCGGTCTCCC
DNA 2: TGGTGGCTACGACGGGATT
B25: UAAGCCU (DNA:RNA)
RNA: B5 RNA with C25U, C26A, U28G, U29C, G30C, C31U
DNA 1: CAATCTGAATTCCGGTCTCCC
DNA 2: TGGTGGCTACGACGGGATT
B26: CUAGAGG (DNA:RNA)
RNA: B5 RNA with C26U, U28G, U29A, C31G
DNA 1: CAATCTGAATTCCGGTCTCCC
DNA 2: TGGTGGCTACGACGGGATT
B27: CGGAAGC (DNA:RNA)
RNA: B5 RNA with C26G, A27G, U28A, U29A
DNA 1: CAATCTGAATTCCGGTCTCCC
DNA 2: TGGTGGCTACGACGGGATT
B28: ACUACAU (DNA:RNA)
RNA: B1 RNA with G25A, U26C, C27U, C28A, A29C
DNA 1: CAATCTGAATTCCGGTCTCCC
DNA 2: TGGTGGCTACGACGGGATT
B29: AGCACUU (DNA:RNA)
RNA: B1 RNA with G25A, U26G, C28A, A29C, A30U
DNA 1: CAATCTGAATTCCGGTCTCCC
DNA 2: TGGTGGCTACGACGGGATT
B30: AGUAGUA (DNA:RNA)
RNA: GGGAGACCGGAAUUCAGAUUGUCCAGUAGUAUUAAAUCCCGUCGUAGCCACCA
DNA 1: CAATCTGAATTCCGGTCTCCC
DNA 2: TGGTGGCTACGACGGGATT
B31: GAACAGU (DNA:RNA)
RNA: B1 RNA with U26A, C27A, A30G
DNA 1: CAATCTGAATTCCGGTCTCCC
DNA 2: TGGTGGCTACGACGGGATT

molecular target: T1, RBFOX1 RRM (Homo sapiens, UniProt Q9NWB1 109-208); assay: EMSA; HiTS-Eq, 1 nM pool, 10 min; buffer printed only for the single-RNA assays: 10 mM Tris pH 7.5, 150 mM NaCl, 3.4 mM EDTA, 0.001% NP-40, 30 C; conditions: tags: His6 N-terminal (pET28a); label: 5' 32P
T1 sequence: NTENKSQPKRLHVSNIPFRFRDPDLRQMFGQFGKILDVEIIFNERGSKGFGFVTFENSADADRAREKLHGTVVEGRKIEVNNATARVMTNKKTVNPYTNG
Method in brief: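 These values rest on relative association constants, computed from read-count changes of each RNA species versus the control reaction and normalised to the cognate motif. Reads came from free RNA recovered by 8% native PAGE after purified RbFox RRM (wild type or mutant) at increasing concentrations was equilibrated for 10 min in 50 µL with 1 nM of a 5′-radiolabelled pool with 7 randomized nucleotides and DNA-annealed flanks.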

| Binder | binding signal |
| --- | --- |
| B1 | 0.00526 KA relative to UGCAUGU |
| B2 | 0.0085 KA relative to UGCAUGU |
| B3 | 0.00873 KA relative to UGCAUGU |
| B4 | 0.0152 KA relative to UGCAUGU |
| B5 | 0.0101 KA relative to UGCAUGU |
| B6 | 0.0332 KA relative to UGCAUGU |
| B7 | 0.0219 KA relative to UGCAUGU |
| B8 | 0.00251 KA relative to UGCAUGU |
| B9 | 0.00906 KA relative to UGCAUGU |
| B10 | 0.0059 KA relative to UGCAUGU |
| B11 | 0.0182 KA relative to UGCAUGU |
| B12 | 0.00395 KA relative to UGCAUGU |
| B13 | 0.0128 KA relative to UGCAUGU |
| B14 | 0.911 KA relative to UGCAUGU |
| B15 | 0.00271 KA relative to UGCAUGU |
| B16 | 0.00115 KA relative to UGCAUGU |

| Binder | binding signal |
| --- | --- |
| B17 | 0.0014 KA relative to UGCAUGU |
| B18 | 0.0134 KA relative to UGCAUGU |
| B19 | 0.0117 KA relative to UGCAUGU |
| B20 | 0.0104 KA relative to UGCAUGU |
| B21 | 0.0107 KA relative to UGCAUGU |
| B22 | 0.0106 KA relative to UGCAUGU |
| B23 | 0.0178 KA relative to UGCAUGU |
| B24 | 0.00359 KA relative to UGCAUGU |
| B25 | 0.00724 KA relative to UGCAUGU |
| B26 | 0.00494 KA relative to UGCAUGU |
| B27 | 0.0209 KA relative to UGCAUGU |
| B28 | 0.000769 KA relative to UGCAUGU |
| B29 | 0.00435 KA relative to UGCAUGU |
| B30 | 0.00651 KA relative to UGCAUGU |
| B31 | 0.0106 KA relative to UGCAUGU |
